Data published in the supplement of paper PMC12355420.
Several values for one entry are separate records, joined by “and”; a condition that tells them apart may be missing. Equal entries are not always repeated. Structures can show the parent of a compound that is named as a salt. This is one part of the list. No stated cut-off is given here; in the data, active = 0.5 or less and inactive = the rest. Repeats are few or missing, and single values can be far off.

Key:
Conditions in all cases: 50 µM; 24 h
[1] = system: HeLa VPS33A reporter cells; assay: relative cell viability (CellMask signal) vs DMSO (fraction of DMSO); higher = less cytotoxic;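 further: primary screen of an FDA-approved drug library in HeLa reporter cells in 96-well format, CellMask signal normalized to DMSO-treated wells set as 1, under 0.5 deemed highly cytotoxic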
[2] = system: HeLa VPS33A R498W KI + HA-SDC1-FLAG; assay: relative GAG core protein HA-SDC1 amount per cell number vs DMSO (fraction of DMSO); higher = more SDC1 (GAG core protein);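 further: HA-SDC1 level read out by In-Cell Western staining with an anti-HA antibody against the N-terminal tag, screening FDA-approved library drugs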
[3] = system: HeLa VPS33A KO + NLuc-VPS33A R498W; assay: relative mutant VPS33A R498W amount (NanoLuc luminescence) vs DMSO (fraction of DMSO); HeLa model of a glycosaminoglycan (GAG) storage disease; KI is knock-in and KO knock-out; SDC1 is syndecan 1; higher = higher mutant VPS33A level;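 further: screen of an FDA-approved drug library, NanoLuc luminescence read after lysing the treated cells, taken as a measure of mutant VPS33A protein stability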

Compound | relative cell viability [1] | relative GAG core protein HA-SDC1 amount per cell number [2] | relative mutant VPS33A R498W amount [3]
CN1[C@H]2C[C@H](OC(=O)[C@H](CO)c3ccccc3)C[C@@H]1[C@@H](O)C2 [Anisodamine] | 1.02 | inactive: 0.944 | 1.19
C[C@]12CC[C@@H](O)C[C@@H]1CC[C@@H]1[C@@H]2CC[C@]2(C)C(=O)CC[C@@H]12 [Androsterone] | 0.968 | inactive: 0.75 | 1.45
COC1=C[C@@H]2[C@@H]3Cc4ccc(OC)c(O)c4[C@]2(CCN3C)CC1=O [Sinomenine] | 1.07 | inactive: 0.909 | 1.4
CN[C@H]1[C@H](O)[C@H](O[C@@H]2[C@@H](O)[C@H](O[C@H]3O[C@H](C(C)O)[C@@H](O)[C@H](O)[C@H]3N)[C@@H](N)C[C@H]2N)OC[C@@]1(C)O (some centres undefined) [Geneticin, G-418 Sulfate] | 1.3 | inactive: 1.33 | 0.9
O=c1cccc2n1C[C@@H]1CNC[C@H]2C1 [Cytisine] | 1.13 | inactive: 0.994 | 1.35
CN(C)[C@@H]1C(=O)C(C(N)=O)=C(O)[C@@]2(O)C(=O)C3=C(O)c4c(O)ccc(Cl)c4[C@@](C)(O)[C@H]3C[C@@H]12 [Chlortetracycline HCl] | 1 | inactive: 0.53 | 0.553
CC1C=CC=CCCC=CC=CC=CC=CC(OC2OC(C)C(O)C(N)C2O)CC2OC(O)(CC(O)C(O)CCC(O)CC(O)CC(O)CC(=O)OC(C)C(C)C1O)CC(O)C2C(=O)O (centres undefined) [Nystatin (Fungicidin)] | 0.935 | inactive: 1.08 | 1.24
COC1=C[C@@H]2[C@@H]3Cc4ccc(OC)c(O)c4[C@]2(CCN3C)CC1=O [Sinomenine Hydrochloride] | 0.982 | inactive: 0.833 | 0.769
CCC1=C[C@H]2CN3CCc4c([nH]c5ccccc45)[C@](C(=O)OC)(C2)[C@H]13 [Catharanthine] | 0.891 | active: 0.479 | 0.862
C[C@]12CC[C@H](O)CC1=CC[C@@H]1[C@@H]2CC[C@]2(C)C(=O)CC[C@@H]12 [Dehydroepiandrosterone (DHEA)] | 1.23 | inactive: 1.09 | 1.29
CC[C@@]1([C@H]2O[C@H]([C@H]3O[C@@](O)(CO)[C@H](C)C[C@@H]3C)C[C@H]2C)CC[C@H]([C@@]2(C)CC[C@]3(C[C@H](O)[C@@H](C)[C@@H]([C@H](C)[C@H](OC)[C@@H](C)C(=O)O)O3)O2)O1 [Sodium Monensin] | 1 | inactive: 0.795 | 0.742
Cc1ccccc1O [o-Cresol] | 1.01 | inactive: 0.894 | 1.2
O=P1(NCCCl)OCCCN1CCCl (centres undefined) [Ifosfamide] | 1.2 | inactive: 1.19 | 0.823
C#C[C@]1(O)C=C[C@H]2[C@@H]3CCC4=CC(=O)CC[C@@H]4[C@H]3CC[C@@]21CC [Gestodene] | 1.02 | inactive: 1.11 | 1.4
CCC1(c2ccc(N)cc2)CCC(=O)NC1=O (centres undefined) [Aminoglutethimide] | 1.22 | inactive: 1.07 | 1.36
Cc1cccc(C(C)c2c[nH]cn2)c1C (centres undefined) [Medetomidine HCl] | 1.26 | inactive: 0.818 | 0.723
O=c1[nH]c2ccccc2n1CCCN1CCC(n2c(=O)[nH]c3cc(Cl)ccc32)CC1 [Domperidone] | 1.13 | active: 0.398 | 0.508
Cc1cccc([C@H](C)c2c[nH]cn2)c1C [Dexmedetomidine HCl] | 1.21 | inactive: 0.765 | 0.677
CN(CC(=O)O)C(=N)NP(=O)(O)O [Phosphocreatine disodium salt] | 1.04 | inactive: 1.14 | 0.999
O=P1(N(CCCl)CCCl)NCCCO1 (centres undefined) [Cyclophosphamide] | 1.3 | inactive: 0.959 | 1.29

Compound | relative cell viability [1] | relative GAG core protein HA-SDC1 amount per cell number [2] | relative mutant VPS33A R498W amount [3]
CO[C@]12C[C@@H](COC(=O)c3cncc(Br)c3)CN(C)[C@@H]1Cc1cn(C)c3cccc2c13 [Nicergoline] | 0.952 | inactive: 0.771 | 0.526
O=S(=O)(F)Cc1ccccc1 | 1.34 | inactive: 0.975 | 1.23
O=Cc1ccco1 [Furfural] | 0.961 | inactive: 0.893 | 1.36
O=[N+]([O-])O[C@H]1CO[C@H]2[C@@H]1OC[C@H]2O[N+](=O)[O-] [Isosorbide Dinitrate] | 1.01 | inactive: 0.881 | 1.24
CC(C)(C)NCC(O)c1cc(Cl)c(N)c(Cl)c1 (centres undefined) [Clenbuterol (hydrochloride)] | 1.15 | inactive: 0.754 | 1.06
CC(=O)[C@H]1CC[C@H]2[C@@H]3CC[C@H]4C[C@H](O)CC[C@]4(C)[C@H]3CC[C@]12C [Allopregnanolone] | 1.16 | inactive: 0.736 | 1.14
CCOC(=O)Nc1ccc(NCc2ccc(F)cc2)cc1N [Retigabine dihydrochloride] | 0.934 | inactive: 1.13 | 0.964
NCC1(CC(=O)O)CCCCC1 [Gabapentin] | 1.05 | inactive: 1.59 | 0.747
NC(=O)CN1CC(O)CC1=O (centres undefined) [Oxiracetam] | 0.935 | inactive: 0.992 | 1.6
N.N.[Cl][Pt][Cl] [Cisplatin] | 1.3 | inactive: 0.563 | 1.3
NCCc1c[nH]c2ccc(O)cc12 [Serotonin HCl] | 0.984 | inactive: 0.669 | 1.02
CC[C@@H](C(N)=O)N1CCCC1=O [Levetiracetam] | 1.47 | inactive: 0.834 | 1.08
O=C(O)CCCc1ccc(N(CCCl)CCCl)cc1 [Chlorambucil] | 0.939 | inactive: 0.745 | 0.756
O=C(O[C@H]1C[N+]2(CCCOc3ccccc3)CCC1CC2)C(O)(c1cccs1)c1cccs1 [Aclidinium Bromide] | 1.04 | inactive: 0.725 | 1.13
CCCN1C[C@H](CSC)C[C@@H]2c3cccc4[nH]cc(c34)C[C@H]21 [Pergolide mesylate] | 1.1 | inactive: 0.999 | 1.05
Cn1cc(C2=C(c3cn(C4CCN(Cc5ccccn5)CC4)c4ccccc34)C(=O)NC2=O)c2ccccc21 | 1.05 | inactive: 3.76 | 0.496
Cc1cccc(C)c1NC1=NCCCS1 [Xylazine] | 0.99 | inactive: 0.818 | 1.16
C=C[C@H]1CN2CC[C@H]1C[C@H]2[C@H](O)c1ccnc2ccccc12 [Cinchonidine] | 1.06 | inactive: 0.733 | 1.1
CN1[C@@H]2CC[C@H]1C[C@@H](OC(=O)C(CO)c1ccccc1)C2 (some centres undefined) [Atropine] | 1.33 and 1.08 | inactive: 1.41 and inactive: 0.834 | 0.861 and 1.39
CC[C@H]1CN2CC[C@]3(C(=O)Nc4ccccc43)[C@@H]2C[C@@H]1/C(=C\OC)C(=O)OC [Rhynchophylline] | 0.931 | inactive: 0.631 | 1.09

Compound | relative cell viability [1] | relative GAG core protein HA-SDC1 amount per cell number [2] | relative mutant VPS33A R498W amount [3]
C=C1C[C@@H]2[C@H](CC[C@]3(C)C(=O)CC[C@@H]23)[C@@]2(C)C=CC(=O)C=C12 [Exemestane] | 1.19 | active: 0.309 | 0.873
NCCc1ccc(O)cc1 [Tyramine] | 0.985 | inactive: 0.816 | 1.38
C[C@@H]1CC[C@H]2[C@@H](C)C(=O)O[C@@H]3O[C@@]4(C)CC[C@@H]1[C@]32OO4 [Artemisinine] | 1.09 | inactive: 0.923 | 0.974
C[C@H]1C(=O)O[C@@H]2CCN3CC=C(COC(=O)[C@](C)(O)[C@]1(C)O)[C@H]23 [Crotaline] | 0.962 | inactive: 0.804 | 1.13
CCCC[N+]1(C)[C@@H]2C[C@@H](OC(=O)[C@H](CO)c3ccccc3)C[C@H]1[C@@H]1O[C@@H]12 (some centres undefined) [Scopolamine butylbromide] | 0.867 | inactive: 0.584 | 0.847
NCCCNCCSP(=O)(O)O [Amifostine] | 0.932 | inactive: 1.12 | 0.979
Cc1cccc([C@H](C)c2c[nH]cn2)c1C [Dexmedetomidine] | 1.19 | active: 0.452 | 0.614
CCOC(=O)c1cncn1[C@H](C)c1ccccc1 [Etomidate hydrochloride] | 1.17 | inactive: 0.876 | 0.914
Cc1cccc(Cc2c[nH]cn2)c1C [Detomidine HCl] | 1.19 | inactive: 1.02 | 1.06
COc1cc([C@@H]2c3cc4c(cc3[C@H](O)[C@H]3COC(=O)[C@H]23)OCO4)cc(OC)c1OC [Podophyllotoxin] | 1.02 | inactive: 0.643 | 0.495
CNCC(=O)c1ccc(O)c(O)c1 [Adrenalone HCl] | 1.26 | inactive: 0.639 | 1.03
CCOC(=O)c1cncn1[C@H](C)c1ccccc1 [Etomidate] | 1.17 | inactive: 1.12 | 1.13
CN1[C@@H]2C[C@@H](OC(=O)[C@H](CO)c3ccccc3)C[C@H]1[C@@H]1O[C@@H]12 [Scopolamine hydrobromide] | 1.04 | inactive: 0.724 | 0.968
NCC(O)c1ccc(O)cc1 (racemic) [(+,-)-Octopamine HCl] | 1.02 | inactive: 0.871 | 1.33
Cn1c(COP(=O)(NCCBr)NCCBr)cnc1[N+](=O)[O-] | 1.08 | inactive: 0.665 | 1.25
COc1cc2c(cc1OC)[C@@]13CCN4CC5=CCO[C@H]6CC(=O)N2[C@H]1[C@H]6[C@H]5C[C@H]43 [Brucine] | 0.998 | inactive: 0.794 | 1.41
O=c1[nH]c2ccccc2n1C1CCN(CCCC(c2ccc(F)cc2)c2ccc(F)cc2)CC1 [Pimozide] | 1.06 | inactive: 0.943 | 1.41
CN(C)[C@@H]1C(=O)C(C(N)=O)=C(O)[C@@]2(O)C(=O)C3=C(O)c4c(O)cccc4[C@@](C)(O)[C@H]3C[C@@H]12 [Tetracycline Hydrochloride] | 1.13 | inactive: 0.693 | 0.371
